# Whole data set: some 18,000 sequences, median “TetR repression strength (sort-seq, GFP reporter)” near 0.23, cut for the highest 2% near 0.68. The list shows a part of the results.
# Biological target: TetR (class B, Tn10) (UniProt P04483)
# Test: TetR repression strength (sort-seq, GFP reporter) (relative to tetO2 = 1); higher = stronger repression
# Details: E. coli
# In short: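 Escherichia coli SIG10-MAX cells carried a low-copy plasmid library in which eight operator positions were randomized between a constitutive promoter and sfGFP, and TetR was expressed constitutively. After 5 h of growth at 37 °C in LB with 50 µg/mL chloramphenicol, 10^6 cells were FACS-sorted into 13 fluorescence bins, and each bin was Illumina-sequenced. Repression strength was the top bin index plus one minus the read-weighted mean bin, divided by the value for the unaltered operator. Across three independent transformations, only library members with ≥30 reads in every replicate and a CV ≤0.5 were averaged.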
# UniProt P04483, sequence (P04483 whole entry): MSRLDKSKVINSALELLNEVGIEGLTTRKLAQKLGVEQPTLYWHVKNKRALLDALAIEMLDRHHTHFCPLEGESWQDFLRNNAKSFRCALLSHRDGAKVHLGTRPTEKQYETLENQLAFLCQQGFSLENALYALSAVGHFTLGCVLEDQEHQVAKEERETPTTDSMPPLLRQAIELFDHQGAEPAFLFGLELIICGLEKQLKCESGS
row,Sequence,TetR repression strength
1,TCCCTAACAGTAATAGAGA,0.569
2,TCCCGGTGAGTAACAGAGA,0.471
3,TCCCGATGAGTTATTGAGA,0.214
4,TCCCGGTCAGTGGGTGAGA,0.202
5,TCCCCGACAGTCACGGAGA,0.245
6,TCCCGGCGAGTGCTCGAGA,0.177
7,TCCCTAACAGTAGGGGAGA,0.102
8,TCCCTATTAGTGCATGAGA,0.194
9,TCCCCTCTAGTGCATGAGA,0.311
10,TCCCGAGGAGTAAGCGAGA,0.155
11,TCCCGGAGAGTTGGCGAGA,0.0488
12,TCCCGCTTAGTCAAAGAGA,0.317
13,TCCCTCACAGTGGGGGAGA,0.189
14,TCCCATGGAGTGTACGAGA,0.202
15,TCCCCGGGAGTGGTCGAGA,0.348
16,TCCCAGGAAGTGCTGGAGA,0.244
17,TCCCGCTTAGTGAGGGAGA,0.419
18,TCCCTCTTAGTATGCGAGA,0.165
19,TCCCATGAAGTGCCCGAGA,0.14
20,TCCCACGCAGTCGCTGAGA,0.306
21,TCCCTATCAGTCTCTGAGA,0.311
22,TCCCGATAAGTGTTGGAGA,0.183
23,TCCCAGGGAGTGGCGGAGA,0.291
24,TCCCATGTAGTGATCGAGA,0.159
25,TCCCGAAGAGTATTTGAGA,0.307
26,TCCCTCGGAGTTGAAGAGA,0.308

row,Sequence,TetR repression strength
1,TCCCTATGAGTGATAGAGA,0.765
2,TCCCCGGGAGTATACGAGA,0.189
3,TCCCAACTAGTGGGTGAGA,0.137
4,TCCCGTACAGTCTACGAGA,0
5,TCCCGTAGAGTTGTAGAGA,0.304
6,TCCCGGGAAGTTGCAGAGA,0.365
7,TCCCCGGGAGTCGCGGAGA,0.355
8,TCCCGTGAAGTCGCGGAGA,0.0919
9,TCCCACACAGTGAAAGAGA,0.486
10,TCCCTGACAGTCACAGAGA,0.194
11,TCCCCTTGAGTGCTGGAGA,0.243
12,TCCCTGTAAGTGTGAGAGA,0.159
13,TCCCCATAAGTGGCGGAGA,0.106
14,TCCCTAATAGTGGTGGAGA,0.4
15,TCCCCTTGAGTTTAGGAGA,0.245
16,TCCCTAAAAGTGTGCGAGA,0.279
17,TCCCGAAAAGTTGTGGAGA,0.0642
18,TCCCTCTTAGTGCTCGAGA,0.286
19,TCCCGCGGAGTCCATGAGA,0.0415
20,TCCCGATGAGTGAGTGAGA,0.39
21,TCCCGAGCAGTGGCGGAGA,0.172
22,TCCCCGTTAGTGTAAGAGA,0.0309
23,TCCCTCTGAGTTATGGAGA,0.0788
24,TCCCGAGCAGTACGAGAGA,0.305
25,TCCCGTGAAGTTGGTGAGA,0.209
26,TCCCATAAAGTATCGGAGA,0.289

row,Sequence,TetR repression strength
1,TCCCTTTCAGTTCTGGAGA,0.201
2,TCCCGTACAGTAGGGGAGA,0.172
3,TCCCGGAAAGTTACAGAGA,0.259
4,TCCCAGGGAGTGTGTGAGA,0.317
5,TCCCAGAAAGTACCCGAGA,0.265
6,TCCCCGGCAGTAGAAGAGA,0.146
7,TCCCGGGAAGTGGATGAGA,0.142
8,TCCCGTGCAGTAATTGAGA,0.35
9,TCCCGTCCAGTTGAGGAGA,0.155
10,TCCCGGCCAGTCGCGGAGA,0.305
11,TCCCGTAGAGTTAAAGAGA,0.314
12,TCCCCTTAAGTTGCAGAGA,0.31
13,TCCCATACAGTAACTGAGA,0.277
14,TCCCCTGGAGTGAGTGAGA,0.163
15,TCCCGACTAGTCAGGGAGA,0.515
16,TCCCTTCTAGTTACTGAGA,0.464
17,TCCCACATAGTAGTGGAGA,0.185
18,TCCCCGATAGTCGGTGAGA,0.204
19,TCCCGCAAAGTGGGCGAGA,0.191
20,TCCCAGAGAGTGCTTGAGA,0.167
21,TCCCAGTGAGTTGTAGAGA,0.167
22,TCCCGAGGAGTCGAAGAGA,0.177
23,TCCCTGGGAGTAGTTGAGA,0.0801
24,TCCCGAGTAGTGACGGAGA,0.125
25,TCCCGCACAGTTGTGGAGA,0.219
26,TCCCTATCAGTTATAGAGA,0.809

row,Sequence,TetR repression strength
1,TCCCGCTCAGTAAAGGAGA,0.622
2,TCCCCCTTAGTACTGGAGA,0.285
3,TCCCATGAAGTTGTGGAGA,0.166
4,TCCCAGATAGTCGTTGAGA,0.287
5,TCCCATGGAGTACTGGAGA,0.0311
6,TCCCTGCCAGTGAGGGAGA,0.234
7,TCCCTTCAAGTGAAAGAGA,0.22
8,TCCCGAGGAGTGTGGGAGA,0.212
9,TCCCTCCTAGTGGCGGAGA,0.417
10,TCCCATTTAGTCTATGAGA,0.279
11,TCCCTAAGAGTGATCGAGA,0.362
12,TCCCTTATAGTCTTAGAGA,0.235
13,TCCCGGGGAGTCAGCGAGA,0.375
14,TCCCCGAGAGTTGAAGAGA,0.192
15,TCCCATTGAGTCCTAGAGA,0.304
16,TCCCTATTAGTGTGTGAGA,0.219
17,TCCCAGGGAGTGCGGGAGA,0.134
18,TCCCAAAGAGTTCTCGAGA,0.321
19,TCCCAGGGAGTTGGCGAGA,0.244
20,TCCCACGCAGTGTGTGAGA,0.207
21,TCCCATAGAGTTGATGAGA,0.145
22,TCCCCCTAAGTGGCGGAGA,0.247
23,TCCCTGGTAGTCAGGGAGA,0.171
24,TCCCTTGGAGTCGCGGAGA,0.305
